Results published in PubChem BioAssay AID485281 (National Center for Advancing Translational Sciences (NCATS), 2010).
The whole screen tested about 350,000 compounds, of which about 260 (0.074%) were called active. The inconclusive results got no clear call from the source; some entries with a clear call stand among them for comparison. The call rests on the fitted dose curve; in most records, active means well fitted inhibition curve with a large enough effect; inconclusive means small, poorly fitted or top-dose-only effect; inactive means no such curve, though single readings can be large or run the other way. Potencies beside an inconclusive call are fits to weak or partial responses and may not hold up.

Biological target: Ferritin light chain (Equus caballus) (UniProt P02791)
UniProt P02791, sequence (P02791 whole entry, looked up): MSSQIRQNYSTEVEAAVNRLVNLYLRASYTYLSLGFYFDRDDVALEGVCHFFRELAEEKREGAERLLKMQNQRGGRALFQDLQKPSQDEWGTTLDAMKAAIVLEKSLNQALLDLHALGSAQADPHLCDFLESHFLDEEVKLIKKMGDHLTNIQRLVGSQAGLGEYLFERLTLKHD
Assay: qHTS Assay for Identification of Novel General Anesthetics; further: nearly all actives have a fitted effect of over 20% in size
Details: apoferritin/1-aminoanthracene competitive binding, fluorescence; activity change, negative = displacement: at 77.5 µM (top of the series)
In short: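 Concentration-response curves derived by four-parameter Hill fitting of normalized fluorescence, where compounds displaced 1-AMA from 10 uM horse apoferritin following a brief 10 min room-temperature incubation; propofol titration acted as positive control.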
On the % scale 0 is the no-effect control and ±100 the full control effect; potency means the concentration at half of the fitted maximal effect; tags describe the fitted curve by direction and shape.

SMILES	Potency	activity change, negative = displacement
COc1ccc(C2NC(=O)NC(C)=C2C(=O)OC2CCC(C)CC2)cc1 (centres undefined)	inconclusive: 25.1 µM [inhibitor, partial curve]	
CCc1ccccc1Nc1nc(N)nc(CSCC(=O)Nc2ccc(C)c(C)c2)n1	inconclusive: 28.2 µM [inhibitor, single point]	
Cc1c(CCC(C)C)c(-n2ccnc2C)n2c(nc3ccccc32)c1C#N		inactive: -0.791%
COc1ccc(NC(=O)CSc2oc(-c3ccco3)nc2S(=O)(=O)c2ccc(Br)cc2)c(OC)c1		inactive: -13%
Cc1cc(C)c(C#N)c(SCc2[nH]nc3c2C(c2ccc(F)cc2)C(C#N)=C(N)O3)n1 (centres undefined)		inactive: 3.2%
COc1ccccc1C1CC(c2ccc(Br)cc2)=NN1C(=O)c1cccnc1 (centres undefined)	inconclusive: 12.6 µM [inhibitor, partial curve]	
CCC(=O)N1CCc2cc(Br)cc(S(=O)(=O)N3CCCC(C(=O)Nc4cccc(Cl)c4C)C3)c21 (centres undefined)		inactive: -8.19%
S=C1SCN(Cc2ccccn2)CN1Cc1ccco1	inconclusive: 28.2 µM [inhibitor, partial curve]	
Cc1ccnc(N2C3CCC2CC(O)(c2ccccc2)C3)n1 (centres undefined)		inactive: -6.21%
COc1cc(C2N=C(N)Nc3nc4ccccc4n32)ccc1OCCC(C)C (centres undefined)	inconclusive: 12.6 µM [inhibitor, partial curve]	
CC(=O)c1cccc(NC(=O)C2CCCN(c3nnc(-n4cccc4)s3)C2)c1 (centres undefined)	inconclusive: 31.6 µM [inhibitor, single point]	
Nc1cc(OCC(F)(F)F)cc([N+](=O)[O-])c1		inactive: -5.14%
Cc1ccccc1-c1nc(CS(=O)(=O)CC(=O)N2CCN(c3ccccc3)CC2)c(C)o1		inactive: -2.52%
Cc1nnc(SCC(=O)Nc2nc(-c3ccc(F)cc3)cs2)[nH]c1=O	inconclusive: 31.6 µM [inhibitor, single point]	
Cc1ccc(CNC(=O)/C(C#N)=C\c2ccc(N(C)C)cc2)cc1	inconclusive: 15.8 µM [inhibitor, partial curve]	
O=C(O)c1ccc(-c2cccc([N+](=O)[O-])c2)o1		inactive: 11.6%
CC(Sc1ccc(Cl)cc1)C(=O)Nc1ccccc1-c1ccccc1 (centres undefined)		inactive: 60.3%
COc1cccc(OC)c1-c1cc(C(=O)NC2(C(=O)O)C3CC4CC(C3)CC2C4)nn1-c1ccc(C(=O)N(C)CCCN(C)C)cc1C(C)C (centres undefined)		inactive: 3.33%
CCOC(=O)N(NC(=O)C(O)(CC(C)C)CC(C)C)c1ccccc1	inconclusive: 39.8 µM [inhibitor, partial curve]	
Cc1cc(C)n(CCOC(=O)c2sc3ccccc3c2Cl)n1	inconclusive: 35.5 µM [inhibitor, partial curve]	
COc1cccc(-c2nc(CS(=O)(=O)CC(=O)NC3CCC(C)CC3)c(C)o2)c1 (centres undefined)	inconclusive: 35.5 µM [inhibitor, partial curve]	
CCCn1c(C(C)Nc2nc(-c3ccc(C)cc3)cs2)nc2cc(Cl)c(Cl)cc21 (centres undefined)	inconclusive: 11.2 µM [inhibitor, full curve, poor fit]	
CCOc1ccc2c(c1)C(c1ccc(C)o1)=NNC(c1ccncc1)=N2	inconclusive: 15.8 µM [inhibitor, partial curve]	

SMILES	Potency	activity change, negative = displacement
C[n+]1ccc(/C=C/c2ccccc2O)c2ccccc21	inconclusive: 35.5 µM [inhibitor, single point]	
CN(C(=O)c1c(Br)cnn1C)C12CC3CC(CC(C3)C1)C2	inconclusive: 11.2 µM [inhibitor, partial curve]	
CCOC(=O)c1cc(C#N)c(N2CCN(c3ccccn3)CC2)nc1-c1ccccc1		inactive: -2.02%
O=C(/C=C/c1ccc(Br)cc1)c1ccco1		inactive: -9.82%
O=C(c1cc(-c2ccccc2)n[nH]1)N1CCc2c([nH]c3ccccc23)C1c1ccccn1 (centres undefined)		inactive: -4.84%
CC(C)C[C@@H](/C=C/S(C)(=O)=O)NC(=O)[C@H](CC(C)C)NC(=O)[C@H](CC(C)C)NC(=O)OCc1ccccc1		inactive: -11.6%
Cc1cc2nc(C3CCCN(C(=S)Nc4ccccc4)C3)[nH]c2cc1C (centres undefined)		inactive: -11.7%
COc1ccc(/C(C)=N/NC(=O)c2ccc(CSc3cccc4cccnc34)cc2)cc1OC	inconclusive: 15.8 µM [inhibitor, partial curve]	
C/C(=C\c1ccco1)C1C(C#N)=C(N)Oc2n[nH]c(-c3ccccc3)c21 (centres undefined)	inconclusive: 20 µM [inhibitor, partial curve]	
O=C(NC1CCCCCCC1)c1cnccn1	inconclusive: 50.1 µM [inhibitor, partial curve]	
Cc1ccccc1NC(NC(=O)OCCn1c([N+](=O)[O-])cnc1C)C(Cl)(Cl)Cl (centres undefined)		inactive: -13.3%
Cc1cc(C)c(S(=O)(=O)NCCOc2ccccc2)c(C)c1-n1cnnn1		inactive: -11%
Cc1cccc(OCCCCCn2ccnc2)c1C	inconclusive: 39.8 µM [inhibitor, partial curve]	
O=C(/C=C/c1ccccc1)NC(NC(=S)Nc1ccc(Cl)cc1)C(Cl)(Cl)Cl (centres undefined)	inconclusive: 15.8 µM [inhibitor, partial curve]	
CCOC(=O)/C(=N\Nc1ccc(OC)cc1)c1csc(Nc2ccccc2)n1	inconclusive: 12.6 µM [inhibitor, partial curve, poor fit]	
CC(=O)Nc1cccc(C(=O)NCc2ccc3c(c2)CCN3C(=O)c2ccccc2)c1	inconclusive: 28.2 µM [inhibitor, partial curve]	
O=[N+]([O-])c1ccc(F)cc1OCc1nc(-c2cccs2)no1	inconclusive: 25.1 µM [inhibitor, partial curve]	
CC(=O)c1cccc(NC(=O)NC2CCCc3ccccc32)c1 (centres undefined)	inconclusive: 28.2 µM [inhibitor, single point]	
CCOc1nc(-c2ccccc2)ccc1-c1noc(COC)n1		inactive: -7.34%
CCOC(=O)c1cnc(SC2CCc3ccccc3C2=O)nc1N (centres undefined)	inconclusive: 15.8 µM [inhibitor, partial curve]	
N#Cc1c(NC(=O)c2ccccc2)sc2c1CCCCC2		inactive: -5.82%
Cc1ccc(-c2nc3cc(C(C)C)ccc3o2)cc1NC(=O)c1cccs1	inconclusive: 14.1 µM [inhibitor, partial curve]	
COc1cc(-c2nnc(SCC(=O)Nc3ccc(F)c(Cl)c3)o2)cc(OC)c1OC	inconclusive: 10 µM [inhibitor, partial curve]	

SMILES	Potency	activity change, negative = displacement
C=CCSc1nnnn1-c1ccc(OC)cc1	inconclusive: 35.5 µM [inhibitor, single point]	
CCC(NC(=O)Nc1cc(C)on1)(C(F)(F)F)C(F)(F)F	inconclusive: 35.5 µM [inhibitor, single point]	
COC(=O)c1ccc(COc2cccc3c2OC(C)(C)C3)cc1	inconclusive: 20 µM [inhibitor, partial curve]	
Cc1oc(-c2ccc(Cl)cc2)nc1CS(=O)CC(=O)NCc1ccc(Cl)cc1 (centres undefined)	inconclusive: 35.5 µM [inhibitor, single point]	
N/C(=N\OC(=O)Cc1cccs1)c1ccccc1	inconclusive: 25.1 µM [inhibitor, partial curve]	
Cc1cc2nc(-c3cc(NC(=O)c4cc5ccccc5o4)ccc3Cl)oc2cc1C		inactive: -5.83%
Cn1c(=O)c2c(SCC(=O)NCc3ccco3)nc(CC(C)(C)C)nc2n(C)c1=O	inconclusive: 39.8 µM [inhibitor, partial curve]	
Cc1ccn(C(=O)c2ccc(NC(=O)C3CCCCC3)cc2)n1	inconclusive: 35.5 µM [inhibitor, partial curve]	
Cc1ccc(NC(=O)COC(=O)/C=C/c2ccccc2)cc1S(=O)(=O)N1CCOCC1	inconclusive: 15.8 µM [inhibitor, partial curve]	
C=CCOc1ccc(C2/C(=C(\O)c3ccc4c(c3)CC(C)O4)C(=O)C(=O)N2CCN2CCOCC2)cc1OCC (centres undefined)	inconclusive: 31.6 µM [inhibitor, single point]	
COc1nc(N(C)S(=O)(=O)c2ccc(C)cc2)nc(C)c1Br		inactive: -2.65%
CC(C)(C)OC(=O)NCCc1nnc(S(=O)(=O)Cc2ccc(Cl)cc2Cl)o1	inconclusive: 25.1 µM [inhibitor, partial curve]	
CSc1ccc(S(=O)(=O)NCCSC(C)(C)C)cc1	inconclusive: 39.8 µM [inhibitor, partial curve]	
O=C(CSc1nnc(Cc2ccccc2)o1)Nc1ccc2c(c1)OCO2	inconclusive: 28.2 µM [inhibitor, partial curve]	
O=C(Cc1cccs1)N1CCN(c2ccc([N+](=O)[O-])cc2)CC1	inconclusive: 35.5 µM [inhibitor, partial curve]	
COc1ccccc1NC(=S)N1CCC(NC(=O)NC23CC4CC(CC(C4)C2)C3)CC1	inconclusive: 28.2 µM [inhibitor, partial curve]	
Clc1ccc(Nc2ncn[nH]2)cc1	inconclusive: 39.8 µM [inhibitor, partial curve]	
O=C(Cc1cccc(F)c1)N1CCCC(CO)(Cc2ccc(F)cc2F)C1 (centres undefined)	inconclusive: 31.6 µM [inhibitor, single point]	
O=c1c2c3c(sc2ncn1/N=C/c1ccc(Br)o1)CCCC3	inconclusive: 3.98 µM [inhibitor, full curve]	
CCc1ccc(NC(=O)C2CCN(C(=O)N3CC(CC)Oc4ccccc43)CC2)cc1 (centres undefined)	inconclusive: 39.8 µM [inhibitor, partial curve]	
C=CCn1c(C)cc(C(=O)COc2nncc3ccccc23)c1C	inconclusive: 28.2 µM [inhibitor, partial curve]	
O=C1/C(=C/c2ccc(O)cc2)SC(=S)N1Cc1cccnc1		inactive: -2.88%
CC1CCCC(C)N1/N=C/c1cccc([N+](=O)[O-])c1 (centres undefined)	inconclusive: 17.8 µM [inhibitor, partial curve]	
